Source: the supplement of paper PMC3334620
In all, about 33,000 sequences were measured (“E-score (-0.5 to 0.5)”: median about -0.011, highest 2% from about 0.28 on). The list shows a part of the results.

The sequences below were run against T1, Gcr1 (UniProt P07261) (assay: PBM E-score (8-mer binding enrichment) (E-score (-0.5 to 0.5)); higher = stronger / more preferred TF binding; most listed sequences are background and not binding sites). Conditions: protein concentration: 100 nM; construct: GST-full length.
T1 sequence: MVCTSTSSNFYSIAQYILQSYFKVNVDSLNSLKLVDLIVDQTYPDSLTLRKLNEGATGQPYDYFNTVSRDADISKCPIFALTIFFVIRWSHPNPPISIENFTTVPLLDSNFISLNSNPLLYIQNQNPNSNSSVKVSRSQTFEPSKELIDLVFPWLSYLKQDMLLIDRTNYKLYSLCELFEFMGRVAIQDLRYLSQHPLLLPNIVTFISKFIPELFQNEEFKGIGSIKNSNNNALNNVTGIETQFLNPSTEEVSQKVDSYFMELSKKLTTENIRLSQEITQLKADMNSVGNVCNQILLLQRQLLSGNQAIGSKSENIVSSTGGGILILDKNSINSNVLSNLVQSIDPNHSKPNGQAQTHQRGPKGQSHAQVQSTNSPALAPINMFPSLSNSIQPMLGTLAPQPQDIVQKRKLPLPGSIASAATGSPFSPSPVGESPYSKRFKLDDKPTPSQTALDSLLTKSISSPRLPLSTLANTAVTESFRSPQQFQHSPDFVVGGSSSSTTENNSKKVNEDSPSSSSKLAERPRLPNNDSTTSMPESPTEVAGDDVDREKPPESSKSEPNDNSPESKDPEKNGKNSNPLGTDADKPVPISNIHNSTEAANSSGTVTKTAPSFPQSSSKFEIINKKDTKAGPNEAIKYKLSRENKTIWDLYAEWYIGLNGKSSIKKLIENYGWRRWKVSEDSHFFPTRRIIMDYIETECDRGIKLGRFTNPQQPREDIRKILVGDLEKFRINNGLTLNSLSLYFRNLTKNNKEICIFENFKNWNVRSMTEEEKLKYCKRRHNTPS
Protocol: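 Universal 'all 10-mer' protein binding microarrays (Agilent AMADID 015681) probed with GST-tagged S. cerevisiae TFs (full-length or DBD) made by in vitro transcription/translation (PURExpress), about 100-200 nM. Bound TF was detected with fluorescent anti-GST. Each ungapped 8-mer (which stands for itself and its reverse complement) is scored by the PBM enrichment score (E-score), a modified Wilcoxon-Mann-Whitney statistic from -0.5 to +0.5, computed with the Universal PBM Analysis Suite. Scale: above 0.35 generally sequence-specific binding.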

Sequence | PBM E-score
TGAACGAA | -0.0917
ACGACAGG | -0.184
AATATGTA | 0.0989
AGGTTCGC | -0.0738
TAGAACGA | -0.0222
ACTCACCC | -0.126
ACTCCGCC | -0.277
CGGGAAAC | 0.191
ATACCCCC | -0.273
GGCGGAAA | 0.0382
CCTAGGTA | -0.219
AGGCTCAG | -0.0198
CCCAGACG | 0.0737
GAGAACCA | 0.123
ATACTCTC | -0.277
CCCCCACC | -0.142
CACGGGAA | -0.0813
CGGTCGTC | -0.122
ACCATGGT | -0.252
CCCCTTTA | 0.0437
ACTCTGAG | -0.0379
CCTCATGC | -0.348
ACAGCCAC | -0.00306
CACCCTGG | -0.0451
CCGTAACC | 0.141

Sequence | PBM E-score
ATTGCAGA | 0.122
CTCCCATA | 0.098
ATCTCTTG | -0.103
GAGGGAAA | -0.192
GCTACGCC | -0.14
AGGGCACT | -0.144
ACGCGCCG | 0.0475
AATCCATG | 0.00781
AACAGTTA | 0.224
CCGCGAAC | -0.209
AGAGGAGC | 0.00804
CACCCGTA | -0.113
ACTTCATG | 0.0318
ATCGTCCG | -0.109
AAATTCAT | -0.0462
AGCCCTAT | 0.00431
CTTACACC | -0.13
AAAAACAT | -0.0212
CTTGGACA | 0.0367
ACCCCTAC | 0.0631
AATAGGTG | 0.185
ACACCCGC | -0.0742
AAGTATTA | 0.0171
GACCAAAC | -0.233
GCTCAGCA | -0.0633

Sequence | PBM E-score
TAGTCCGA | -0.214
AGCCGGAT | 0.0709
CGTACTAC | -0.0841
AATCTGGT | 0.281
CACAACAA | 0.00775
AAACTTTA | 0.153
CAAGTGGA | 0.181
CCTGAGGA | 0.173
CAGTCGCC | 0.0419
TGAACCCA | 0.0317
AGTTTTTA | 0.00042
AGATTCAT | -0.042
AGGAAGCA | 0.13
CGTAGAAA | 0.027
GAAACTTA | 0.184
ACGTAGGG | -0.0453
GCTTCGAC | -0.103
AGTCAGGG | -0.108
ACTATGTC | 0.0549
AGCCTTGC | -0.146
ATAGGCTG | -0.0658
CCAAATGG | 0.184
CGGTTCGC | -0.0757
AAGGCGTA | 0.0455
AATTTAGT | 0.182

Sequence | PBM E-score
AGATGGAA | -0.00047
TGCGGCCA | -0.0217
GTGGTTGA | 0.0768
GAGGATCA | -0.214
CGAGCAGC | 0.107
AGGACTTA | -0.244
CCTGCATA | -0.0109
CCCAGTAC | 0.0549
AATGGGTA | -0.0165
GCCCCTCC | 0.151
CGCGGATC | -0.068
CGCACAGC | -0.133
AACGGTAT | -0.0407
GGTAAACA | 0.028
AAATCTGG | 0.292
AGCTGAAC | 0.0737
AAGGGGGC | -0.0954
AGTGAAGC | 0.0364
ATGGGGAA | 0.192
GTGATCAC | 0.183
AATCGACC | -0.0725
AGTTCCCC | 0.105
AAAGCATC | 0.216
TACTCGAA | 0.0843
AAGTAAGG | -0.0793

Sequence | PBM E-score
ATCGTAGG | -0.0574
CACCAGTC | -0.02
GCGACACA | -0.0641
CGTAGATA | -0.0503
CCGGGCAA | -0.0158
AGATTGCA | -0.177
ACTGTGGG | -0.192
ATATAATG | -0.137
CGAGTGAC | 0.0417
GAGTAGCC | -0.107
TCCTTTAA | 0.185
CCCGCGTC | 0.174
GTGTCGCA | -0.113
AATGTGCC | -0.315
GGGAGACA | 0.00118
CCGCGAGC | -0.0368
GCGTTACC | -0.0245
GCGGATTA | -0.0372
TAAGGTAA | -0.0367
GCTGCAGC | -0.135
ACTTTGCT | -0.0659
CGGGTTAC | -0.0158
GTGTAAGA | -0.0682
GGAACGAA | 0.115
ACCCCTTA | -0.0381

Sequence | PBM E-score
CTAGAGAG | -0.145
CTACCGTC | -0.0298
GAGGTGTA | -0.075
CAAGGGTG | -0.101
CTTCAGGC | -0.221
CGCTAGAG | -0.189
ATCATTCA | -0.0571
CGATTAGC | -0.0472
AACGGATC | 0.0591
CTGCGCGA | -0.111
ATATGTGG | 0.0312
AGACAACT | -0.118
GCTTCGAA | 0.0428
GAGAGAGA | -0.115
CGTCATAC | -0.0511
AATTCGGC | 0.0611
GCCTTTAA | 0.0704
CGATTCGC | 0.0104
ACGTAGAC | -0.0213
GCCGACGA | 0.00816
ACTATAAC | -0.0682
CGAACTAC | 0.00469
AGAGGTCC | -0.0649
CTGAGAGC | 0.00285
AGATGCGC | 0.103

Sequence | PBM E-score
ACAGTAGC | -0.133
GATTGCAA | -0.00101
CTGACATA | -0.0528
ACTATTCG | -0.0474
CGGCACTA | -0.0377
CTTTCGTC | -0.02
AAATCTTA | 0.111
CCGCATAA | 0.203
CCAAGAAG | 0.0977
AGGACACT | -0.0873
CCAATCGG | -0.00989
TACTAGGA | 0.122
ACCGAGCC | -0.31
CCCGGTAG | -0.0486
ATCTTACA | -0.0663
CTCATCCA | -0.128
TTGGGAAA | 0.0142
CGTAAAGC | -0.164
TAATATCA | 0.216
GACGAGAA | -0.104
GGCGCACA | -0.136
AGAAAAGC | -0.254
